Measured values: PubChem BioAssay AID686979 (National Center for Advancing Translational Sciences (NCATS), 2013)
Several values for one entry are separate records, joined by “and”; a condition that tells them apart may be missing. Equal entries are not always repeated. Hit rate of the full screen: of about 420,000 compounds, about 50,000 (12%) were called active. The shares of active, inactive and inconclusive entries below differ from those in the screen. The call rests on the fitted dose curve; in most records, active means well fitted inhibition curve with a large enough effect; inconclusive means small, poorly fitted or top-dose-only effect; inactive means flat fitted curve, though single readings scatter. Where the call is inconclusive, the potency comes from a doubtful curve fit.

experiment: qHTS for Inhibitors of human tyrosyl-DNA phosphodiesterase 1 (TDP1): qHTS in cells in presence of CPT; details: chicken DT40 Tdp1-/-;hTDP1 cells + 20 nM CPT, ATP luminescence, 48 h; activity change, negative = growth inhibition: at 46.2 µM (top of the series); further: nearly all actives have a fitted effect of over 55% in size
Summary of the method: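 Chicken DT40 Tdp1-/- cells complemented with human TDP1, 400 cells/well, exposed to compounds plus 20 nM camptothecin for at least 48 h at 37 C; viability read as ATP content by CellTiter-Glo luminescence.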
On the % scale 0 is the no-effect control and ±100 the full control effect; potency means the concentration at half of the fitted maximal effect; tags describe the fitted curve by direction and shape.

SMILES | Potency | activity change, negative = growth inhibition
O=C(CN1C(=O)COc2ccc(S(=O)(=O)N3CCCC3)cc21)Nc1cccc(F)c1 | inconclusive: 16.4 µM [inhibitor, partial curve] | 
CCN(CC)c1nc(C(N)=O)cc(-c2ccccc2)n1 |  | inactive: -5.47%
O=C1CNC(=S)N1CCc1ccc(Cl)cc1 |  | inactive: 26%
COc1ccc2[nH]c(=O)c(C(c3nnnn3CC3CCCO3)N3CCCCC3)cc2c1 (configuration not stated) |  | inactive: 5.47%
COCCNC(=O)CN(c1cc(C(F)(F)F)ccc1Cl)S(C)(=O)=O |  | inactive: -7.14%
CCCNC(=O)c1onc(CS(=O)(=O)c2cccc(OC)c2)c1C(=O)NCCC | inconclusive: 32.6 µM [inhibitor, single point] | 
C/C=C/c1ccc(OCCOCCNCc2ccccc2)c(OC)c1 | inconclusive: 20.6 µM [inhibitor, single point] | 
O=C(CCn1cnc2ccccc2c1=O)Nc1nc(-c2ccc(Br)cc2)cs1 | inconclusive: 20.6 µM [inhibitor, single point] | 
NC1=NC(=O)/C(=C/c2ccc(Br)cc2)S1 |  | inactive: -9.64%
Cc1ccc(NC(=O)CNC(=O)Cn2c(C)cc3ccccc3c2=O)cc1F |  | inactive: -8.28%
S=C(NNc1ccnc2cc(Cl)ccc12)Nc1ccc(Cl)cc1Cl | active: 4.61 µM | 
O=C(Nc1nc(-c2cccs2)cs1)c1ccc(Cl)cc1 | active: 25.9 µM | 
c1ccc(Nc2nc(NCCN3CCOCC3)nc(Nc3ccccc3)n2)cc1 | inconclusive: 20.6 µM [inhibitor, single point] | 
NC(=O)COC(=O)c1ccc(C(=O)C(=O)c2ccccc2)cc1 |  | inactive: -2.19%
O=C1CSC(=S)N1N=Cc1ccc(Cl)s1 | inconclusive: 16.4 µM [inhibitor, single point] | 
COc1ccccc1NC(=S)NC(NC(C)=O)C(Cl)(Cl)Cl (configuration not stated) |  | inactive: -18.5%
O=C(Cn1c(=O)n(Cc2ccc(Cl)cc2)c(=O)c2cccnc21)Nc1ccccc1C(F)(F)F | inconclusive: 2.31 µM [inhibitor, full curve] | 
Cc1ccc(-c2nnc(-c3ccc(NC(=O)Cc4cccs4)cc3)o2)cc1 | active: 14.6 µM | 
COc1cc(C(=O)NCCOc2cc(C)cc(C)c2)c(Br)c(OC)c1OC | active: 16.4 µM | 
c1ccc(CN2CCC3CC2c2cc(N4CCCCC4)ccc23)cc1 (configuration not stated) | inconclusive: 18.4 µM [inhibitor, single point] | 
CN(Cc1ccc(F)cc1)S(=O)(=O)c1nnc(NC(=O)c2ccccc2Br)s1 | inconclusive: 23.1 µM [inhibitor, single point] and inconclusive: 29.1 µM [inhibitor, single point] | 
Cn1c(=O)oc2cc(S(=O)(=O)N3CCC(C(=O)NCc4ccccc4)CC3)ccc21 | inactive | 
